# Reference: PubChem BioAssay (NCATS)
# The inconclusive results got no clear call from the source; some entries with a clear call stand among them for comparison. Potencies beside an inconclusive call are fits to weak or partial responses and may not hold up. Active and inactive are the calls of the source. Calls follow the shape of the dose curve; as a rule, active = well fitted curve in the direction sought with a large enough effect; inconclusive = small, poorly fitted or top-dose-only effect, or another doubt; inactive = no such curve, though single readings can be large; an effect the other way counts as inactive or inconclusive.
# Assays:
# [1] = P-glycoprotein substrates identified in KB-8-5-11 adenocarcinoma cell line, qHTS therapeutic library screen (AID 1346987); also: nearly all actives have a fitted effect of over 65% in size; as to activity change, negative = cytotoxicity: % is scaled to controls: 0 for no effect and ±100 for the full control effect
# Method in brief: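 P-gp-mediated resistance screen: KB-8-5-11 cells treated 72 h with compounds in dose-response. CellTiter-Glo viability.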
# [2] = Primary qHTS for inhibitors of nuclear receptor binding SET domain protein 2 (NSD2) in an RCH-ACV wild type WT cells (2C) (AID 1645877); settings: activity change, negative = cell killing: at 44.9 µM (top of the series); also: nearly all actives have a fitted effect of over 70% in size; as to activity change, negative = cell killing: % is scaled to controls: 0 for no effect and ±100 for the full control effect
# [3] = tested on: HEK293; assay: Cytotoxic Profiling of Annotated Libraries Using Quantitative High-Throughput Screening (AID 1296008); settings: Five cell lines viability, CellTiter-Glo ATP luminescence, 48-72 h; max response: hits give low values; also: nearly all actives have a fitted effect of over 60% in size; as to max response: % is scaled to controls: 0 for no effect and ±100 for the full control effect
# Method in brief: (§1)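 Cytotoxicity was measured as CellTiter-Glo ATP luminescence, read after 10 min at room temperature. Compound treatment of the cells lasted 48 or 72 hr at 37 degrees Celsius in a qHTS format.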
# [4] = tested on: HaCat; assay: as above; settings: Five cell lines viability, CellTiter-Glo ATP luminescence, 48-72 h; max response: hits give low values
# Method in brief: as §1
# [5] = tested on: NIH3T3; assay: as above; settings: Five cell lines viability, CellTiter-Glo ATP luminescence, 48-72 h; max response: hits give low values
# Method in brief: as §1
# [6] = tested on: CASKI; assay: Primary qHTS to identify gynecologic anti-cancer compounds using libraries of approved drugs and bioactive compounds (AID 1345084); settings: Gynecologic cancer cell panel viability, ATPlite luminescence, 48 h; activity change, negative = cytotoxicity: at 57.5 µM (top of the series); also: nearly all actives have a fitted effect of over 55% in size; as to activity change, negative = cytotoxicity: % is scaled to controls: 0 for no effect and ±100 for the full control effect
# Method in brief: (§2)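 Five-concentration response, 48 h; readout is ATP-driven luciferase luminescence.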
# [7] = tested on: Hek293T; assay: as above; settings: Gynecologic cancer cell panel viability, ATPlite luminescence, 48 h, control line for the selectivity index; series mostly up to 57.5 µM
# Method in brief: as §2
# [8] = tested on: OV90; assay: as above; settings: Gynecologic cancer cell panel viability, ATPlite luminescence, 48 h; series mostly up to 57.5 µM
# Method in brief: as §2
# [9] = tested on: PA-1; assay: as above; settings: Gynecologic cancer cell panel viability, ATPlite luminescence, 48 h; series mostly up to 57.5 µM
# Method in brief: as §2
# [10] = tested on: SKOV3; assay: as above; settings: Gynecologic cancer cell panel viability, ATPlite luminescence, 48 h; series mostly up to 57.5 µM
# Method in brief: as §2
# [11] = tested on: C33A; assay: as above; settings: Gynecologic cancer cell panel viability, ATPlite luminescence, 48 h; series mostly up to 57.5 µM
# Method in brief: as §2
# [12] = tested on: CAOV3; assay: as above; settings: Gynecologic cancer cell panel viability, ATPlite luminescence, 48 h; series mostly up to 57.5 µM
# Method in brief: as §2
# [13] = tested on: Es-2; assay: as above; settings: Gynecologic cancer cell panel viability, ATPlite luminescence, 48 h; series mostly up to 57.5 µM
# Method in brief: as §2
# [14] = tested on: HeLa; assay: as above; settings: Gynecologic cancer cell panel viability, ATPlite luminescence, 48 h; series mostly up to 57.5 µM
# Method in brief: as §2
# [15] = tested on: JEG-3; assay: as above; settings: Gynecologic cancer cell panel viability, ATPlite luminescence, 48 h; series mostly up to 57.5 µM
# Method in brief: as §2
# [16] = tested on: Tov-21-G; assay: as above; settings: Gynecologic cancer cell panel viability, ATPlite luminescence, 48 h; activity change, negative = cytotoxicity: at 57.5 µM (top of the series)
# Method in brief: as §2
# [17] = tested on: Tov112D; assay: as above; settings: Gynecologic cancer cell panel viability, ATPlite luminescence, 48 h; activity change, negative = cytotoxicity: at 57.5 µM (top of the series)
# Method in brief: as §2
# [18] = tested on: Zika virus NS2B-NS3 protease (unlinked complex); assay: Primary screen GU Rhodamine qHTS for Zika virus inhibitors: Unlinked NS2B-NS3 protease assay (AID 1347159); also: nearly all actives have a fitted effect of over 60% in size
# Method in brief: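 Percent inhibition derives from the 15-min fluorescence change (ex 480, em 540 nm), normalized to no-enzyme and no-inhibitor wells. Reactions contained 25 nM NS2B-NS3 complex and 1.5 microM substrate in 10 mM Tris-HCl pH 8.0.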
# [19] = Primary qHTS for inhibitors of nuclear receptor binding SET domain protein 2 (NSD2) in an isogenic RCH-ACV NSD2 p.E1099K mutant (9B) (AID 1645876); also: nearly all actives have a fitted effect of over 70% in size
# Potency is read from the fitted curve at half-maximal effect; tags tell the direction and shape of the fitted curve.
structure (smiles),measurement,setting,value
C[C@@H](NC(=O)C(=O)c1c[nH]c2ccc([N+](=O)[O-])cc12)c1ccccc1,Potency,[1],inactive
same,Potency,[2],inactive
same,Potency,[3],"inconclusive: 29.1 µM [inhibitor, single point]"
same,outcome,[4],inactive
same,max response,[5],inactive: 3.7%
CC[N+](CC)(CC)CCOC(=O)C(C1CCCC1)C1CCCC1,Potency,[2],"inconclusive: 26.6 µM [inhibitor, single point]"
same,Potency,[3],"inconclusive: 23.7 µM [inhibitor, single point]"
same,max response,[4],inactive: -3.44%
same,Potency,[6],"inconclusive: 39.8 µM [cytotoxic, single point]"
same,Potency,[7],inactive
same,Potency,[8],"inconclusive: 12.6 µM [cytotoxic, partial curve]"
same,Potency,[9],"inconclusive: 31.6 µM [cytotoxic, single point]"
same,Potency,[10],inactive
COc1cc2c(cc1OC)-c1[nH]nc(Nc3cccc(F)c3)c1C2,Potency,[1],active: 0.092 µM
same,Potency,[3],active: 0.13 µM
same,Potency,[4],active: 0.0731 µM
same,Potency,[11],"inconclusive: 11.2 µM [cytotoxic, partial curve, poor fit]"
same,Potency,[12],"inconclusive: 0.316 µM [cytotoxic, full curve, poor fit]"
same,Potency,[6],active: 0.891 µM
same,Potency,[13],active: 1.41 µM
same,Potency,[14],active: 0.562 µM
same,Potency,[7],"inconclusive: 0.398 µM [cytotoxic, full curve]"
same,Potency,[15],"inconclusive: 2 µM [cytotoxic, full curve, poor fit]"
same,Potency,[8],"inconclusive: 8.91 µM [cytotoxic, partial curve, poor fit]"
same,Potency,[9],active: 0.316 µM
same,Potency,[10],"inconclusive: 20 µM [cytotoxic, partial curve, poor fit]"
same,Potency,[16],active: 2.24 µM
same,Potency,[17],active: 0.282 µM
COc1cc(N2CCC(N)CC2)ccc1Nc1ncc(Cl)c(-c2c[nH]c3ccccc23)n1,Potency,[18],inactive
same,Potency,[3],active: 4.61 µM
same,Potency,[4],active: 5.17 µM
same,Potency,[11],"inconclusive: 14.1 µM [cytotoxic, partial curve, poor fit]"
same,Potency,[12],active: 22.4 µM
same,Potency,[6],active: 28.2 µM
same,Potency,[7],"inconclusive: 15.8 µM [cytotoxic, partial curve]"
same,Potency,[8],"inconclusive: 1.58 µM [cytotoxic, partial curve]"
same,Potency,[10],active: 5.01 µM
same,Potency,[16],active: 8.91 µM
same,Potency,[17],"inconclusive: 14.1 µM [cytotoxic, partial curve]"
COc1ccc(NC(=O)C2C[C@H](C)CC[C@H]2C(C)C)cc1 (some centres undefined),Potency,[19],"inconclusive: 23 µM [inhibitor, partial curve, poor fit]"
same,Potency,[3],"inconclusive: 18.4 µM [inhibitor, single point]"
same,max response,[4],inactive: -2.17%
same,max response,[5],inactive: -6.73%
Cc1ccc(C(=O)Oc2ccc(C(O)CNC(C)(C)C)cc2OC(=O)c2ccc(C)cc2)cc1 (centres undefined),Potency,[19],"inconclusive: 23.7 µM [inhibitor, single point]"
same,Potency,[2],"inconclusive: 26.6 µM [inhibitor, single point]"
same,max response,[3],inactive: 1.15%
same,outcome,[4],inactive
same,Potency,[12],"inconclusive: 39.8 µM [cytotoxic, single point]"
same,Potency,[8],"inconclusive: 31.6 µM [cytotoxic, single point]"
same,Potency,[10],"inconclusive: 39.8 µM [cytotoxic, single point]"
COc1ccc([C@H]2Cc3cccc(O)c3C(=O)O2)cc1OC,Potency,[19],"inconclusive: 29 µM [inhibitor, single point]"
same,Potency,[2],"inconclusive: 23 µM [inhibitor, single point]"
same,Potency,[3],"inconclusive: 29.1 µM [inhibitor, single point]"
same,Potency,[4],"inconclusive: 11.6 µM [inhibitor, partial curve]"
same,Potency,[5],"inconclusive: 9.2 µM [inhibitor, partial curve]"
CC(C)C[C@@H](N)C(=O)N[C@H]1C(=O)N[C@@H](CC(N)=O)C(=O)N[C@H]2C(=O)N[C@H]3C(=O)N[C@H](C(=O)N[C@H](C(=O)O)c4cc(O)cc(O)c4-c4cc3ccc4O)[C@H](O)c3ccc(c(Cl)c3)Oc3cc2cc(c3O[C@@H]2O[C@H](CO)[C@@H](O)[C@H](O)[C@H]2O[C@H]2C[C@](C)(N)[C@H](O)[C@H](C)O2)Oc2ccc(cc2Cl)[C@H]1O,Potency,[18],"inconclusive: 44.7 µM [inhibitor, partial curve, poor fit]"
same,Potency,[3],"inconclusive: 14.2 µM [inhibitor, single point]"
same,Potency,[4],"inconclusive: 15.9 µM [inhibitor, single point]"
same,Potency,[11],"inconclusive: 20 µM [cytotoxic, single point]"
same,Potency,[6],"inconclusive: 17.8 µM [cytotoxic, single point]"
same,Potency,[13],"inconclusive: 17.8 µM [cytotoxic, single point]"
same,Potency,[14],"inconclusive: 17.8 µM [cytotoxic, single point]"
same,Potency,[7],"inconclusive: 17.8 µM [cytotoxic, single point]"
same,Potency,[15],"inconclusive: 20 µM [cytotoxic, single point]"
same,Potency,[8],"inconclusive: 10 µM [cytotoxic, partial curve, poor fit]"
same,Potency,[9],"inconclusive: 17.8 µM [cytotoxic, single point]"
same,Potency,[10],"inconclusive: 8.91 µM [cytotoxic, single point]"
same,Potency,[16],"inconclusive: 14.1 µM [cytotoxic, single point]"
same,Potency,[17],"inconclusive: 15.8 µM [cytotoxic, single point]"
CC(C)COCC(CN(Cc1ccccc1)c1ccccc1)N1CCCC1 (centres undefined),Potency,[1],"inconclusive: 4.11 µM [inhibitor, partial curve, poor fit]"
same,Potency,[3],active: 18.8 µM
same,Potency,[4],"inconclusive: 33.5 µM [inhibitor, single point]"
same,Potency,[11],"inconclusive: 39.8 µM [cytotoxic, single point]"
same,Potency,[12],active: 25.1 µM
same,Potency,[7],"inconclusive: 28.2 µM [cytotoxic, single point]"
same,Potency,[15],"inconclusive: 35.5 µM [cytotoxic, single point]"
same,Potency,[8],active: 25.1 µM
same,Potency,[9],"inconclusive: 35.5 µM [cytotoxic, single point]"
same,Potency,[10],"inconclusive: 28.2 µM [cytotoxic, single point]"
same,Potency,[17],"inconclusive: 39.8 µM [cytotoxic, single point]"
COc1ccc(C[C@H](N)C(=O)N[C@@H]2[C@H](O)[C@H](n3cnc4c(N(C)C)ncnc43)O[C@@H]2CO)cc1,Potency,[1],"inconclusive: 23.1 µM [inhibitor, single point]"
same,Potency,[18],"inconclusive: 89.1 µM [inhibitor, single point]"
same,Potency,[3],active: 1.16 µM
same,Potency,[4],active: 1.46 µM
same,Potency,[11],active: 3.16 µM
same,Potency,[12],active: 1.58 µM
same,Potency,[6],active: 2.24 µM
same,Potency,[14],active: 1.26 µM
same,Potency,[7],active: 2.24 µM
same,Potency,[15],active: 3.55 µM
same,Potency,[8],active: 7.94 µM
same,Potency,[10],active: 2.82 µM
same,Potency,[16],active: 4.47 µM
same,Potency,[17],active: 1.78 µM
